Source: PMC9911399, “Two distinct binding modes provide the RNA-binding protein RbFox with extraordinary sequence specificity”
Substitutions are numbered along the chain they refer to; changes in the protein carry UniProt numbers. The list shows a part of the results.

T1: RBFOX1 RRM (Homo sapiens, UniProt Q9NWB1 109-208)
T1 sequence: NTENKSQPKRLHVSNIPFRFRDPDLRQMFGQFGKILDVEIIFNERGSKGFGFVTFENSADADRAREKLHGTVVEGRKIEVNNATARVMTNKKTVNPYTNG

B1: AGUGGGC (DNA:RNA)
RNA: GGGAGACCGGAAUUCAGAUUGUCCAGUGGGCUUAAAUCCCGUCGUAGCCACCA
DNA 1: CAATCTGAATTCCGGTCTCCC
DNA 2: TGGTGGCTACGACGGGATT
B2: CGUAGCA (DNA:RNA)
RNA: B1 RNA with A25C, G28A, G30C, C31A
DNA 1: CAATCTGAATTCCGGTCTCCC
DNA 2: TGGTGGCTACGACGGGATT
B3: CAACUCU (DNA:RNA)
RNA: GGGAGACCGGAAUUCAGAUUGUCCCAACUCUUUAAAUCCCGUCGUAGCCACCA
DNA 1: CAATCTGAATTCCGGTCTCCC
DNA 2: TGGTGGCTACGACGGGATT
B4: AUGAAUC (DNA:RNA)
RNA: B1 RNA with G26U, U27G, G28A, G29A, G30U
DNA 1: CAATCTGAATTCCGGTCTCCC
DNA 2: TGGTGGCTACGACGGGATT
B5: AGCGUAA (DNA:RNA)
RNA: B1 RNA with U27C, G29U, G30A, C31A
DNA 1: CAATCTGAATTCCGGTCTCCC
DNA 2: TGGTGGCTACGACGGGATT
B6: GCUAGUG (DNA:RNA)
RNA: B1 RNA with A25G, G26C, G28A, G30U, C31G
DNA 1: CAATCTGAATTCCGGTCTCCC
DNA 2: TGGTGGCTACGACGGGATT
B7: UUCGAGC (DNA:RNA)
RNA: B1 RNA with A25U, G26U, U27C, G29A
DNA 1: CAATCTGAATTCCGGTCTCCC
DNA 2: TGGTGGCTACGACGGGATT
B8: GGUUCAG (DNA:RNA)
RNA: B1 RNA with A25G, G28U, G29C, G30A, C31G
DNA 1: CAATCTGAATTCCGGTCTCCC
DNA 2: TGGTGGCTACGACGGGATT
B9: GCCUAGG (DNA:RNA)
RNA: B1 RNA with A25G, G26C, U27C, G28U, G29A, C31G
DNA 1: CAATCTGAATTCCGGTCTCCC
DNA 2: TGGTGGCTACGACGGGATT
B10: UAAGAGU (DNA:RNA)
RNA: B3 RNA with C25U, C28G, U29A, C30G
DNA 1: CAATCTGAATTCCGGTCTCCC
DNA 2: TGGTGGCTACGACGGGATT
B11: GAGCUUG (DNA:RNA)
RNA: B3 RNA with C25G, A27G, C30U, U31G
DNA 1: CAATCTGAATTCCGGTCTCCC
DNA 2: TGGTGGCTACGACGGGATT
B12: AGAUCCG (DNA:RNA)
RNA: B1 RNA with U27A, G28U, G29C, G30C, C31G
DNA 1: CAATCTGAATTCCGGTCTCCC
DNA 2: TGGTGGCTACGACGGGATT
B13: UCAGGUG (DNA:RNA)
RNA: B1 RNA with A25U, G26C, U27A, G30U, C31G
DNA 1: CAATCTGAATTCCGGTCTCCC
DNA 2: TGGTGGCTACGACGGGATT
B14: ACAGAGU (DNA:RNA)
RNA: B1 RNA with G26C, U27A, G29A, C31U
DNA 1: CAATCTGAATTCCGGTCTCCC
DNA 2: TGGTGGCTACGACGGGATT
B15: UCUCUGA (DNA:RNA)
RNA: B1 RNA with A25U, G26C, G28C, G29U, C31A
DNA 1: CAATCTGAATTCCGGTCTCCC
DNA 2: TGGTGGCTACGACGGGATT
B16: GCCAAUU (DNA:RNA)
RNA: B3 RNA with C25G, A26C, A27C, C28A, U29A, C30U
DNA 1: CAATCTGAATTCCGGTCTCCC
DNA 2: TGGTGGCTACGACGGGATT
B17: GUUGCUC (DNA:RNA)
RNA: B1 RNA with A25G, G26U, G29C, G30U
DNA 1: CAATCTGAATTCCGGTCTCCC
DNA 2: TGGTGGCTACGACGGGATT
B18: CUUUGGC (DNA:RNA)
RNA: B1 RNA with A25C, G26U, G28U
DNA 1: CAATCTGAATTCCGGTCTCCC
DNA 2: TGGTGGCTACGACGGGATT
B19: UGUGAUU (DNA:RNA)
RNA: B1 RNA with A25U, G29A, G30U, C31U
DNA 1: CAATCTGAATTCCGGTCTCCC
DNA 2: TGGTGGCTACGACGGGATT
B20: AGGUUGA (DNA:RNA)
RNA: B1 RNA with U27G, G28U, G29U, C31A
DNA 1: CAATCTGAATTCCGGTCTCCC
DNA 2: TGGTGGCTACGACGGGATT
B21: GAAGCAA (DNA:RNA)
RNA: B3 RNA with C25G, C28G, U29C, C30A, U31A
DNA 1: CAATCTGAATTCCGGTCTCCC
DNA 2: TGGTGGCTACGACGGGATT
B22: GCGAAGC (DNA:RNA)
RNA: B1 RNA with A25G, G26C, U27G, G28A, G29A
DNA 1: CAATCTGAATTCCGGTCTCCC
DNA 2: TGGTGGCTACGACGGGATT
B23: CAGGUCU (DNA:RNA)
RNA: B3 RNA with A27G, C28G
DNA 1: CAATCTGAATTCCGGTCTCCC
DNA 2: TGGTGGCTACGACGGGATT
B24: CUUCGCA (DNA:RNA)
RNA: B3 RNA with A26U, A27U, U29G, U31A
DNA 1: CAATCTGAATTCCGGTCTCCC
DNA 2: TGGTGGCTACGACGGGATT
B25: UCAACCC (DNA:RNA)
RNA: B3 RNA with C25U, A26C, C28A, U29C, U31C
DNA 1: CAATCTGAATTCCGGTCTCCC
DNA 2: TGGTGGCTACGACGGGATT
B26: CAUUACU (DNA:RNA)
RNA: B3 RNA with A27U, C28U, U29A
DNA 1: CAATCTGAATTCCGGTCTCCC
DNA 2: TGGTGGCTACGACGGGATT
B27: CAAGGUA (DNA:RNA)
RNA: B3 RNA with C28G, U29G, C30U, U31A
DNA 1: CAATCTGAATTCCGGTCTCCC
DNA 2: TGGTGGCTACGACGGGATT
B28: GUAUGAA (DNA:RNA)
RNA: B1 RNA with A25G, G26U, U27A, G28U, G30A, C31A
DNA 1: CAATCTGAATTCCGGTCTCCC
DNA 2: TGGTGGCTACGACGGGATT
B29: GACGUCA (DNA:RNA)
RNA: B3 RNA with C25G, A27C, C28G, U31A
DNA 1: CAATCTGAATTCCGGTCTCCC
DNA 2: TGGTGGCTACGACGGGATT
B30: AAGUCUU (DNA:RNA)
RNA: B3 RNA with C25A, A27G, C28U, U29C, C30U
DNA 1: CAATCTGAATTCCGGTCTCCC
DNA 2: TGGTGGCTACGACGGGATT
B31: GUACGGA (DNA:RNA)
RNA: B1 RNA with A25G, G26U, U27A, G28C, C31A
DNA 1: CAATCTGAATTCCGGTCTCCC
DNA 2: TGGTGGCTACGACGGGATT

What follows are binders tested against T1, RBFOX1 RRM (assay: EMSA; HiTS-Eq, 1 nM pool, 10 min; buffer printed only for the single-RNA assays: 10 mM Tris pH 7.5, 150 mM NaCl, 3.4 mM EDTA, 0.001% NP-40, 30 C). Details: tags: His6 N-terminal (pET28a); label: 5' 32P.
Procedure, shortened: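 Purified RbFox RRM, wild type or mutant, was incubated for 10 min in 50 µL with 1 nM of a 5′-radiolabelled RNA pool carrying 7 randomized nucleotides, whose flanks were annealed to DNA oligonucleotides, over a series of increasing protein concentrations. Unbound RNA was resolved on 8% native PAGE, cut out, reverse-transcribed, barcoded by PCR and sequenced on an Illumina HiSeq 2500. Relative association constants were derived from changes in read counts for each RNA species versus the control reaction and normalised to the cognate motif.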

Binder	binding signal
B1	0.00917 KA relative to UGCAUGU
B2	0.016 KA relative to UGCAUGU
B3	0.00316 KA relative to UGCAUGU
B4	0.00485 KA relative to UGCAUGU
B5	0.00399 KA relative to UGCAUGU
B6	0.0248 KA relative to UGCAUGU
B7	0.0185 KA relative to UGCAUGU
B8	0.00719 KA relative to UGCAUGU
B9	0.0123 KA relative to UGCAUGU
B10	0.0123 KA relative to UGCAUGU
B11	0.0295 KA relative to UGCAUGU
B12	0.00786 KA relative to UGCAUGU
B13	0.019 KA relative to UGCAUGU
B14	0.00631 KA relative to UGCAUGU
B15	0.0157 KA relative to UGCAUGU
B16	0.00519 KA relative to UGCAUGU

Binder	binding signal
B17	0.0265 KA relative to UGCAUGU
B18	0.0196 KA relative to UGCAUGU
B19	0.0207 KA relative to UGCAUGU
B20	0.0183 KA relative to UGCAUGU
B21	0.0115 KA relative to UGCAUGU
B22	0.0105 KA relative to UGCAUGU
B23	0.013 KA relative to UGCAUGU
B24	0.0119 KA relative to UGCAUGU
B25	0.00038 KA relative to UGCAUGU
B26	0.00134 KA relative to UGCAUGU
B27	0.00475 KA relative to UGCAUGU
B28	0.0136 KA relative to UGCAUGU
B29	0.00822 KA relative to UGCAUGU
B30	0.00703 KA relative to UGCAUGU
B31	0.00829 KA relative to UGCAUGU
